From publication PMC12136788
Some of the results follow.

T1: UNK ZnF1-3 (human, UniProt Q9C0B0 31-174)
T1 sequence: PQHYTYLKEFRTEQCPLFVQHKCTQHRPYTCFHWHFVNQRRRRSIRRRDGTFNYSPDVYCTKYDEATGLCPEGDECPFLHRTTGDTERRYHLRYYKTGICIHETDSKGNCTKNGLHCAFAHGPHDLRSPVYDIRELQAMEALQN

B1: chr6:122779733:122779734:-_ENSG00000111897_ENST00000339697|hu_mus|motif|central (ssRNA)
RNA: GGGAGUUCUACAGUCCGACGAUCUAACAUUACACAAGCUACACAUACUCCGACGAGCAAGAAAAGUGCGUAGAUCAAUCGGGUCACAGUGGAGUUGUUCCCACUGGGGCAGCAUCGGCACAGCAAACACGGGGCACUGCCACACAACAGAGGAUUGAGCAUCA
B2: chr2:114691908:114691909:+_ENSG00000115091_ENST00000536059|hu_hu|FALSE|FALSE (ssRNA)
RNA: GGGAGUUCUACAGUCCGACGAUCGCCAAUCACAUACCCUUCAGCCACAGGAAUGACAUGAGUGACACCAUCUCCACUGUCUAUUACCGUACCGGUCAACGUCCGUUCUCCUACUUGUCUUGAGGUCCAAGAUGCAGCUAAGGCCAACAGAGGAUUGAGCAUCA
B3: chr10:90611280:90611281:-_ENSMUSG00000019961_ENSMUST00000072239|mus_mus|FALSE|FALSE (ssRNA)
RNA: GGGAGUUCUACAGUCCGACGAUCGAUUUAAAAGCAAGUCAGUUAUACUUUUAAAUCAAAUUACAUCGGGAAUUAUAUGCCUAAAACAAACAAAAAUAACACCCAGACUCAACCCAAAACAAAAAACCCAAAAAUCCCUGGCUGCAACAGAGGAUUGAGCAUCA
B4: chr7:135612270:135612271:-_ENSG00000105887_ENST00000393085|hu_hu|FALSE|FALSE (ssRNA)
RNA: GGGAGUUCUACAGUCCGACGAUCUUUUCUGAGAUGUUAAGUAUUACUUCAGUGGAGAACAAAACUUACUUAACCUUUCGCUAAUGCAUGUAGUACCAGAAAGCAAACAUGGUUUUAGCUUCCUUUACUCAAAAUAUGAACAUUCAACAGAGGAUUGAGCAUCA
B5: 6624856_6638637_1340_3pUTR_ENSMUSG00000041272_ENSMUST00000039987|mouse|control|control (ssRNA)
RNA: GGGAGUUCUACAGUCCGACGAUCCUGGCUGGGCCCAUGGAAUACUGACGGCUUUGAGUUGACCAGCUGGGGUGGCUGAGAUGUCUUAACAUCAACAGGAUCAGUGUAGCUCUUGGAUACAAGGCUGGCUCUGUAUGCUGCUAGCAACAGAGGAUUGAGCAUCA
B6: chr12:15822463:15822464:-_ENSMUSG00000020601_ENSMUST00000020922|mus_hu|FALSE|FALSE (ssRNA)
RNA: GGGAGUUCUACAGUCCGACGAUCUUUAAAAGGGAGCGAGAGGGGAGGGGACAGAAGAGGGGCUGCGUGGAGAAAGAGUUAGAAGCCCCCAAAUGGGCGCCGCCGGAUACCUCGUCUGCUCCGAGCCCGGCUCCCGGGGGUCCUCAACAGAGGAUUGAGCAUCA
B7: chr3:132390928:132390929:+_ENSG00000081307_ENST00000264991|hu_hu|FALSE|FALSE (ssRNA)
RNA: GGGAGUUCUACAGUCCGACGAUCACUGGCUGCACAAACACCUUCUCGUUUCAGAGUCUUUUCAUCAAUAUUUGCAGCAACUACAAGUGGUGGAGCACACGCAAAACAAGCAGAUUCUCCAGGAAUUAUAAGCUGUAUAUGCCCCAACAGAGGAUUGAGCAUCA
B8: chrX:154448470:154448471:+_ENSG00000155959_ENST00000286428|hu_mus|motif|central (ssRNA)
RNA: GGGAGUUCUACAGUCCGACGAUCAUCCAGCUUCUUUAACACUGUAUCUGCAGUCUCAUUCCCAGGCUGCUUCAUGAAAGAAUCGGCAUCUUCCACAAACACUGCUUCAGGAAUCCCUAAGUGGAGCCGCCGCCCGUUUCCAGCCAACAGAGGAUUGAGCAUCA
B9: chrX:70347820:70347821:+_ENSG00000184634_ENST00000374080|hu_mus|FALSE|FALSE (ssRNA)
RNA: GGGAGUUCUACAGUCCGACGAUCGAGCCCCGUGUAGGUGAAAGUGUGAGCGGCAGGGUUCUCCAGAGUGUCAAUCAUGAACUCCGGUGCCCAGCGCAUAUUGGAUUCCGAUGGCUCCACGUUACAGUAGAUGGUGUUCUUCACCAACAGAGGAUUGAGCAUCA
B10: chr3:179287964:179287965:+_ENSG00000136518_ENST00000429709|hu_hu|hu_hu_hu_mus_True|28_78 (ssRNA)
RNA: GGGAGUUCUACAGUCCGACGAUCCUUGAGUGGUGAGAUGGCCUCCAUGUUCUCCCUCGGAACACGCAGGGCAUUGGUGUCUAUGUAGUAGGUGGGCCCGCCCUGCUUGCCUUUAUCACCAUCAAUCUCCAUCAUUGUACUUCCCAACAGAGGAUUGAGCAUCA
B11: chr4:115894766:115894767:+_ENSMUSG00000028698_ENSMUST00000030464|mus_hu|mus_mus_mus_hu_True|1_48 (ssRNA)
RNA: GGGAGUUCUACAGUCCGACGAUCUUCCACACGGAAAUGUACUUCGGGUUUUCCAACGGCCAGUACCAGUCCGGCCAAACUACCCGAUGAGGACAAGCCCCCUCUCUCCUACAGAACACAACAAAAUGCCCCCGAACCCCGAACCAACAGAGGAUUGAGCAUCA
B12: chr14:35777207:35777208:+_ENSG00000100902_ENST00000261479|hu_hu|FALSE|FALSE (ssRNA)
RNA: GGGAGUUCUACAGUCCGACGAUCUUUGUCAGGUACUUUCUUCUGUGUGACAAUUACUGCACAGUCUUUCCCUCUGACAGCUACUGAUGUAAGGCCACCCUGGUUAAUAGCCUUAAAAGCAUAUUCUACUUGGUAGAGCCGACCCAACAGAGGAUUGAGCAUCA
B13: chr1:220276048:220276049:+_ENSG00000067704_ENST00000302637|hu_hu|hu_hu_hu_mus_True|48_58 (ssRNA)
RNA: GGGAGUUCUACAGUCCGACGAUCGCAAAUUGCCUGGUUGGCGGGAAUUGUCCAAGGCUGGGUGGUCCAAACUAAAAUACUAACAGGAGAUGAACCAUCUGUAAGAGACUCCAACUUCGGAGGAGGUCUCAGGAGGGGGAAUCUCAACAGAGGAUUGAGCAUCA
B14: chr7:149068622:149068623:-_ENSMUSG00000025139_ENSMUST00000001950|mus_hu|mus_mus_mus_hu_False|88_88 (ssRNA)
RNA: GGGAGUUCUACAGUCCGACGAUCGUGAGGCCUCUGAGUGUGGCUUGUGCUCUGCAGUGGGUUAGAGUUGUUAAUAUCACGGAACAUACCAUCUAGAACGUUCCAGUCCCGCCUGACACCUUCAUUCCCAAUGGAGAAGAAAUCCAACAGAGGAUUGAGCAUCA

target: T1, UNK ZnF1-3; experiment: nsRBNS (natural sequence RNA bind-n-seq); RBNS binding buffer (assumed for nsRBNS): 25 mM Tris pH 7.5, 150 mM KCl, 3 mM MgCl2, 0.01% Triton X-100, 500 ug/ml BSA, 20 U/ml SUPERase-In, 4 C; UNK is unkempt and MSI1 is Musashi-1; names of the RNAs are library labels; protein concentration not given here; high values mean tight binding

| Binder | binding signal [enrichment R] |
| --- | --- |
| B1 | 1.42 |
| B2 | 1.24 |
| B3 | 1.59 |
| B4 | 0.587 |
| B5 | 1.18 |
| B6 | 1.17 |
| B7 | 1.53 |
| B8 | 1.32 |
| B9 | 0.929 |
| B10 | 0.432 |
| B11 | 1.04 |
| B12 | 0.543 |
| B13 | 1.48 |
| B14 | 0.747 |
